Source: publication PMC5834211
These are yes or no findings as the source states them, for the method shown. In cells and extracts the contact can be indirect. Tags and fused reporters may be left off the sequences shown.

Amino acid sequences for entries named in this document (tags omitted).
UniProt Q7Z434: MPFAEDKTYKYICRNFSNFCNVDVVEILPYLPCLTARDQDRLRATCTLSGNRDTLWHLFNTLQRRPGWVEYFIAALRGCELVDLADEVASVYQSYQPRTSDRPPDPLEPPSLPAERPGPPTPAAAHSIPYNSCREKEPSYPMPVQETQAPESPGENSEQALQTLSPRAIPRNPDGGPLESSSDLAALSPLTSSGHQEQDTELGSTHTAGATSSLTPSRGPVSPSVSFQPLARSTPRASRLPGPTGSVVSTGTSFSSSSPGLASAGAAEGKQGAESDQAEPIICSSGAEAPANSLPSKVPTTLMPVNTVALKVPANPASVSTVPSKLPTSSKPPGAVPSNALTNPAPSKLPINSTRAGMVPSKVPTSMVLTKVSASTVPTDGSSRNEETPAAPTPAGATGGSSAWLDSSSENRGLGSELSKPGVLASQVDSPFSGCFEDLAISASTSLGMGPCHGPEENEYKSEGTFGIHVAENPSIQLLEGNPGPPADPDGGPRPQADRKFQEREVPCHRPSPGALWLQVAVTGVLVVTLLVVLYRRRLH

Molecular target: T1, HA-DHX29 (full-length, FL-DHX29) (human) (UniProt Q7Z478)
T1 sequence: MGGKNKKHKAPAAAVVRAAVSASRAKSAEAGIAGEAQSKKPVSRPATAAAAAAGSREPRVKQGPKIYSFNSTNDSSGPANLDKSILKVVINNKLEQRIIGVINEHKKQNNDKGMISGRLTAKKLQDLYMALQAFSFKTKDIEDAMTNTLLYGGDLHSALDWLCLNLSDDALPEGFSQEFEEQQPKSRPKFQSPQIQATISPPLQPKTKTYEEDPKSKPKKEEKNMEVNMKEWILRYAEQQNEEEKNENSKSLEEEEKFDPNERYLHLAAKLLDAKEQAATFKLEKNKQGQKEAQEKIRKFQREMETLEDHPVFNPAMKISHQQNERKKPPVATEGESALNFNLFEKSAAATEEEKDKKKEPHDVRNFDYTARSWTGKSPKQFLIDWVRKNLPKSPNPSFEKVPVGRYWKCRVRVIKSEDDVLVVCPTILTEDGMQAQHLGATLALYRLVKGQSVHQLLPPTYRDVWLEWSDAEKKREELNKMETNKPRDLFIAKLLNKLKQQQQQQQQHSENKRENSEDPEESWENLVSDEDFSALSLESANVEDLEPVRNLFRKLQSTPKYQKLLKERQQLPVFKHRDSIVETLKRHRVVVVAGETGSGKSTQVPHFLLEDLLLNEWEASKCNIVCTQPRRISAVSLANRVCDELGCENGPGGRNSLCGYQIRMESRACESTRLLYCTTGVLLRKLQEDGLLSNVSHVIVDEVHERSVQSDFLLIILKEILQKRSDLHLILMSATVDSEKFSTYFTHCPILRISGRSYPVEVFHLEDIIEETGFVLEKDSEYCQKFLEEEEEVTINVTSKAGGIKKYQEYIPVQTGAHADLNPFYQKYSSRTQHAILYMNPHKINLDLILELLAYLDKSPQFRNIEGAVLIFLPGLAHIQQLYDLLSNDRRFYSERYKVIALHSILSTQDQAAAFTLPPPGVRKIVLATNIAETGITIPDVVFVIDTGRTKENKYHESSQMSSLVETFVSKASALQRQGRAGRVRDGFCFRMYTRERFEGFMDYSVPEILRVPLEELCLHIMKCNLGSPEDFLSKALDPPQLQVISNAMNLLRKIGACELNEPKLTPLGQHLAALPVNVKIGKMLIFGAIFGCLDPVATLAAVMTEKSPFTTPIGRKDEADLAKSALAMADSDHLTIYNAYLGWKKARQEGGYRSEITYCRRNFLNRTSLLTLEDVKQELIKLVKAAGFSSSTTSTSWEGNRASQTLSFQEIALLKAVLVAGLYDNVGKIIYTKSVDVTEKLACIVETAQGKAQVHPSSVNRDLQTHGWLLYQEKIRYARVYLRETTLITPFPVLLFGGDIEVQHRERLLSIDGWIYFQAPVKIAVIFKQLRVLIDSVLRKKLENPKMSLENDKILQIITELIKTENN
Experiment: co-IP; 293T cells cotransfected; whole cell lysates immunoprecipitated with anti-HA beads, immunoblotted with anti-Flag (Fig 5A, Fig 6A); also in RIG-I knockout 293T cells (S5D Fig)

Flag-MAVS (from UniProt Q7Z434 1-540)
binding: no binding
